The supplement of paper PMC3334620
Whole data set: some 33,000 sequences, median “E-score (-0.5 to 0.5)” near -0.01, cut for the highest 2% near 0.26. This is one part of the list.

target: Ste12 (UniProt P13574); assay: PBM E-score (8-mer binding enrichment) (E-score (-0.5 to 0.5)); higher = stronger / more preferred TF binding; most listed sequences are background and not binding sites; conditions: protein concentration: 200 nM; construct: GST-DNA-binding domain
How it was run: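 Yeast transcription factors carrying a GST tag, as full-length proteins or DNA-binding domains, were produced by PURExpress in vitro transcription/translation. About 100-200 nM protein was applied to universal all-10-mer Agilent arrays, double-stranded by primer extension on fresh or once-stripped slides. Bound protein was detected with fluorescent anti-GST, and scans were normalised with masliner. The Universal PBM Analysis Suite gave each ungapped eight-base word, pooled with its reverse complement, an E-score, a modified Wilcoxon-Mann-Whitney statistic.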

Sequence	PBM E-score
CACACATA	0.0505
AACGGTGT	0.0499
GCAGTGAA	0.25
ATTCCTTA	0.0366
ACCATTAA	0.221
AACCCAGA	-0.108
AACTAATG	0.0859
CCTGAGCG	-0.152
TACGTCAA	0.0103
TATTCTCA	0.122
AAATACGG	0.0587
CAATGCCG	-0.0769
GATTAGCC	-0.057
ATACCAAT	-0.146
AATTTGCC	0.0665
CTTCGACC	-0.107
AACTTATA	0.0627
ATCAGCGG	0.0345
CAGCACGG	-0.0896
ACGAGTAG	0.0683
CACATGAA	0.108
ATAAGAAC	0.171
TCTTCGAA	0.023
CTAAGAAC	0.189
CCACCGTA	-0.0231

Sequence	PBM E-score
GAAGGCTC	-0.209
CTGACGCA	-0.2
AGGCTCTC	-0.13
CCCTAGTC	-0.238
CTTGGTTC	0.181
ACGTCGTC	-0.064
CACAATAC	0.0976
AGCCAAAA	0.0698
AGTTCGTA	-0.0725
TGCGTCCA	-0.147
ACCTTGGC	-0.0364
CAAACATG	0.179
ACATATCA	0.257
CTGGAAAG	-0.141
CGAGTGGC	-0.0423
CTATGGAA	0.107
CTTCCGCA	-0.00457
CGTTGTGA	-0.0207
GTAGGAAC	0.066
GAATACCA	0.05
AAAGGGGC	-0.05
AAGCCGGG	-0.0595
TCCCTACA	0.0325
CTCAGGGC	-0.157
CTGCCTCC	-0.0717

Sequence	PBM E-score
TTAACCAA	0.154
GAAACGCA	0.323
CCTCTCAC	-0.161
CACAGAAA	0.0319
CCCAAGTC	-0.0209
GACTATGA	-0.118
CGGCATAA	-0.0029
ACCCTAAG	0.0578
CATTCATA	0.296
AACGGCAA	0.109
GCGACCAA	0.0799
CGCGTAAA	-0.0365
TCTCTTCA	0.0588
AAAGCCTA	-0.129
CTCCCCAG	0.032
ATGTGTTA	0.159
TAGGTGAA	-0.0106
CTAGGGCA	-0.159
AGTCTCGC	-0.0327
ATGCATCC	-0.0591
GAATCCTA	-0.0649
CTTGGTGC	-0.0549
CCTGCACA	-0.182
ATGCATAA	0.00819
CCCGGTAC	-0.162

Sequence	PBM E-score
CTCAATAA	0.113
AGTCCAAT	-0.0915
TCAACACA	0.161
GCTATCGA	-0.031
AAAGGGTC	-0.0177
AGGGCACG	-0.103
GCGCGGCA	0.0978
TACCGTAA	0.0868
GTAGTCCA	-0.291
CTCCTCAC	-0.16
GATGAACA	0.00898
CTTGTTTC	0.375
ATCTTCAT	0.121
ACATGGAT	0.0543
AACTGCGT	-0.192
CATCTTTA	0.0614
AAAATTAT	0.337
ATAGTCCC	-0.186
ATCCGGAA	0.0122
AACGACAC	-0.0753
ACCCTCTA	-0.119
AACGATAG	0.12
ATACGTTA	0.00095
CTAGCCCC	-0.0142
ATCAGAGC	0.122

Sequence	PBM E-score
GCACTAGA	-0.0307
CCTCGGAA	0.113
CAAGCGAC	0.0365
ACTCATAG	-0.0812
GCTTAGCA	-0.107
CCTCGTGC	-0.0395
CAATGCAC	-0.042
CGAGCGGA	0.0598
CAGTAATA	0.124
CTTGGTAC	-0.0162
AATATGCC	-0.21
CTTTTCAC	0.119
CTGATTAA	0.0273
GGGACTAC	-0.06
CATTAATG	0.141
AGAGGCTC	-0.293
ATTTGTTA	0.274
GAGATTAA	-0.0406
ACGGGCAG	0.00316
CCACAGTA	0.0539
CGTCCAAG	-0.272
ATCTTATC	0.141
TGTCTAAA	0.0325
ACCCACAC	-0.0854
GGGCGCTA	-0.227

Sequence	PBM E-score
ATCCCAAG	-0.0738
AAATTGCT	0.14
CGCAGCAA	-0.249
CCTGGGTC	-0.0574
AGTTGATG	-0.123
AAGTACAG	-0.165
ATCTGAAG	0.0795
AATCGTTC	-0.0664
GAGTTAAA	0.19
GGAAGGAC	-0.111
GACGCAGA	-0.014
CATAGATG	-0.0464
GGAGAGCA	-0.154
GAGGGCGC	-0.0659
TGAGTAAA	0.0686
GGATAGGA	0.049
ACTTGGAT	0.0871
GAGCAGAA	-0.0605
CGCGCCTA	0.0604
CGTGGAGC	-0.0859
CAGGAATG	-0.0309
ATCCGTAA	0.0503
ACAAGGCG	0.0176
TCGCGCAA	0.0392
TTAAATAA	0.249

Sequence	PBM E-score
AGTTGTCG	-0.0338
GAAATGGA	-0.191
ACTATGCT	0.073
CAACACTA	0.0388
AACACATT	0.181
CATGGTCG	0.00496
GGCAACCC	-0.0508
AGGCGGCA	-0.266
CCTAAGAC	-0.115
AACTCGGG	-0.0999
AGATGTCG	0.0449
ACCCGCGA	0.0816
GTATTATA	0.202
ATAACCGG	-0.0698
AGACTATG	-0.121
ATGAGTTC	-0.135
TATCAGAA	0.108
TCCGACCA	0.113
CTGCAGTC	-0.189
AATATAGT	0.113
ATATGAAA	0.346
ATAATTGG	0.17
